From a collection of fitness landscapes (doi:10.1126/science.1257360)
This is one part of the list.

B1: PhoQ; a variant is named by its letters at X, in order, P23837 (parent)
chain: MKKLLRLFFPLSLRVRFLLATAAVVLVLSLAYGMVALIGYSVSFDKTTFRLLRGESNLFYTLAKWENNKLHVELPENIDKQSPTMTLIYDENGQLLWAQRDVPWLMKMIQPDWLKSNGFHEIEADVNDTSLLLSGDHSIQQQLQEVREDDDDAEMTHSVAVNVYPATSRMPKLTIVVVDTIPVELKSSYMVWSWFIYVLSANLLLVIPLLWVAAWWSLRPIEALAKEVRELEEHNRELLNPATTRELTSLVRNLNRLLKSERERYDKYRTTLTDLTHSLKTPLXXLQXXLRSLRSEKMSVSDAEPVMLEQISRISQQIGYYLHRASMRGGTLLSRELHPVAPLLDNLTSALNKVYQRKGVNISLDISPEISFVGEQNDFVEVMGNVLDNACKYCLEFVEISARQTDEHLYIVVEDDGPGIPLSKREVIFDRGQRVDTLRPGQGVGLAVAREITEQYEGKIVAGESMLGGARMEVIFGRQHSAPKDE

Variants of: B1
Test: enrichment ratio after two sorts for PhoP signalling (ratio (wild type AVST 3.29)); higher = more functional
Details: with PhoP (E. coli)

Row | Variant | enrichment ratio
1 | FQGG | ≤ 0.25
2 | NKTY | ≤ 0.25
3 | RPKC | ≤ 0.25
4 | NVLN | ≤ 0.25
5 | MDLC | ≤ 0.25
6 | YVCK | ≤ 0.25
7 | KYQM | ≤ 0.25
8 | NHYC | ≤ 0.25
9 | NTSV | ≤ 0.25
10 | RPCK | ≤ 0.25
11 | DWYT | ≤ 0.25
12 | SNFD | ≤ 0.25
13 | IITP | ≤ 0.25
14 | KKVA | ≤ 0.25
15 | IMFW | ≤ 0.25
16 | QCFR | ≤ 0.25
17 | SGAN | 7.18
18 | SNSW | ≤ 0.25
19 | VWVK | ≤ 0.25
20 | SPCV | ≤ 0.25
21 | HWIL | ≤ 0.25
22 | MTTC | ≤ 0.25
23 | GTFF | ≤ 0.25
24 | NHVD | ≤ 0.25

Row | Variant | enrichment ratio
25 | RALA | ≤ 0.25
26 | YWST | ≤ 0.25
27 | NNAI | 4.06
28 | HRKM | ≤ 0.25
29 | HTFA | ≤ 0.25
30 | HFRM | ≤ 0.25
31 | NISK | ≤ 0.25
32 | SVGM | 9.35
33 | TIIF | ≤ 0.25
34 | NYWK | ≤ 0.25
35 | EDCD | ≤ 0.25
36 | HVNP | ≤ 0.25
37 | VLHQ | ≤ 0.25
38 | CRCF | ≤ 0.25
39 | DCGV | ≤ 0.25
40 | FWYF | ≤ 0.25
41 | KMLQ | ≤ 0.25
42 | WKMT | ≤ 0.25
43 | LYAS | ≤ 0.25
44 | DRFD | ≤ 0.25
45 | QETI | 1.44
46 | KNFD | ≤ 0.25
47 | TQPN | ≤ 0.25
48 | SFLA | 8.02

Row | Variant | enrichment ratio
49 | IMFM | ≤ 0.25
50 | ILKQ | ≤ 0.25
51 | ASTS | 9.85
52 | ISIE | ≤ 0.25
53 | VFWG | ≤ 0.25
54 | YIWF | ≤ 0.25
55 | CFAF | ≤ 0.25
56 | DMPC | ≤ 0.25
57 | VFED | ≤ 0.25
58 | NWAI | ≤ 0.25
59 | AEAG | 7.71
60 | GLWD | ≤ 0.25
61 | HQQG | ≤ 0.25
62 | DYGD | ≤ 0.25
63 | PKSK | ≤ 0.25
64 | TEQP | ≤ 0.25
65 | FCLN | 3.94
66 | VCAS | ≤ 0.25
67 | SNEL | ≤ 0.25
68 | SHCF | 7.35
69 | MRNC | ≤ 0.25
70 | VIMV | ≤ 0.25
71 | YWLY | ≤ 0.25
72 | EFSH | ≤ 0.25

Row | Variant | enrichment ratio
73 | VEKY | ≤ 0.25
74 | HWSC | ≤ 0.25
75 | MEAM | 9.82
76 | VMER | ≤ 0.25
77 | PTLP | ≤ 0.25
78 | KLRT | ≤ 0.25
79 | YITK | ≤ 0.25
80 | EYYK | ≤ 0.25
81 | SRRC | ≤ 0.25
82 | VLHA | ≤ 0.25
83 | RLWN | ≤ 0.25
84 | AFPV | ≤ 0.25
85 | GYCL | ≤ 0.25
86 | RIYY | ≤ 0.25
87 | GKAW | ≤ 0.25
88 | NPCF | ≤ 0.25
89 | HDWM | ≤ 0.25
90 | VYNI | ≤ 0.25
91 | QGYK | 0.706
92 | YAPC | ≤ 0.25
93 | TCFG | ≤ 0.25
94 | GAHP | ≤ 0.25
95 | DIEC | ≤ 0.25
96 | LRCA | ≤ 0.25

Row | Variant | enrichment ratio
97 | IPTV | ≤ 0.25
98 | GGCR | ≤ 0.25
99 | YRQM | ≤ 0.25
100 | KGYM | ≤ 0.25
101 | TREC | ≤ 0.25
102 | ENLK | ≤ 0.25
103 | FQPA | ≤ 0.25
104 | TKGA | ≤ 0.25
105 | TQIQ | 9.56
106 | WLFM | ≤ 0.25
107 | TQIL | 7.66
108 | KDYA | ≤ 0.25
109 | KQRD | ≤ 0.25
110 | TEDD | ≤ 0.25
111 | QIYN | 20.5
112 | YAIE | ≤ 0.25
113 | ANVL | 13.9
114 | HTLC | ≤ 0.25
115 | MHPG | ≤ 0.25
116 | SFKG | ≤ 0.25
117 | RQIQ | ≤ 0.25
118 | LQSF | ≤ 0.25
119 | PNFQ | ≤ 0.25
120 | PAQT | ≤ 0.25

Row | Variant | enrichment ratio
121 | IRNH | ≤ 0.25
122 | IEAG | ≤ 0.25
123 | GLCA | ≤ 0.25
124 | WYCL | ≤ 0.25
125 | LETD | ≤ 0.25
126 | KIMD | ≤ 0.25
127 | INKY | ≤ 0.25
128 | ILST | ≤ 0.25
129 | LDAF | ≤ 0.25
130 | KYHN | ≤ 0.25
131 | QRPY | ≤ 0.25
132 | ELDD | ≤ 0.25
133 | KLGT | ≤ 0.25
134 | IATP | ≤ 0.25
135 | KVPA | ≤ 0.25
136 | WSGT | ≤ 0.25
137 | LMQP | ≤ 0.25
138 | CLNF | ≤ 0.25
139 | LPKC | ≤ 0.25
140 | DILL | ≤ 0.25
141 | HWWL | ≤ 0.25
142 | RNRI | ≤ 0.25
143 | DWVC | ≤ 0.25
144 | FGLS | 8.38

Row | Variant | enrichment ratio
145 | IFDW | ≤ 0.25
146 | VLPF | ≤ 0.25
147 | QAYW | 2.38
148 | AMPG | ≤ 0.25
149 | TRRG | ≤ 0.25
150 | WCDK | ≤ 0.25
151 | SKNK | ≤ 0.25
152 | KRFT | ≤ 0.25
153 | HKHK | ≤ 0.25
154 | ALVH | 0.867
155 | WHKL | ≤ 0.25
156 | KVAS | ≤ 0.25
157 | PASE | ≤ 0.25
158 | WLSF | ≤ 0.25
159 | ARDR | ≤ 0.25
160 | YEFL | ≤ 0.25
161 | KKYD | ≤ 0.25
162 | YQLA | ≤ 0.25
163 | MPCD | ≤ 0.25
164 | WIMR | ≤ 0.25
165 | FQAY | ≤ 0.25
166 | MMAC | 3.29
167 | KDTF | ≤ 0.25
168 | YAEH | ≤ 0.25

Row | Variant | enrichment ratio
169 | DRCM | ≤ 0.25
170 | VMFI | ≤ 0.25
171 | LLCY | ≤ 0.25
172 | SLLS | 6.35
173 | HTTY | ≤ 0.25
174 | IPWL | ≤ 0.25
175 | KHER | ≤ 0.25
176 | YTGS | ≤ 0.25
177 | HMTC | ≤ 0.25
178 | YLDR | ≤ 0.25
179 | RQDW | ≤ 0.25
180 | FGCI | 7.38
181 | RKTD | ≤ 0.25
182 | ANEL | ≤ 0.25
183 | YQNN | ≤ 0.25
184 | KFYQ | ≤ 0.25
185 | YKVH | ≤ 0.25
186 | HRPI | ≤ 0.25
187 | FYIK | ≤ 0.25
188 | PWDK | ≤ 0.25
189 | RDGP | ≤ 0.25
190 | IAGG | ≤ 0.25
191 | NTRP | ≤ 0.25
192 | VCFD | ≤ 0.25

Row | Variant | enrichment ratio
193 | IALP | ≤ 0.25
194 | TLWI | ≤ 0.25
195 | IDKK | ≤ 0.25
196 | NVMV | ≤ 0.25
197 | EHEF | ≤ 0.25
198 | EYFH | ≤ 0.25
199 | TETM | 22.4
200 | EKGL | ≤ 0.25
201 | FLER | ≤ 0.25
202 | EKSF | ≤ 0.25
203 | HYSI | ≤ 0.25
204 | YSRI | ≤ 0.25
205 | ANLP | ≤ 0.25
206 | GREI | ≤ 0.25
207 | GPST | ≤ 0.25
208 | GEAG | 3.49
209 | MPLR | ≤ 0.25
210 | MQNI | ≤ 0.25
211 | LQPC | ≤ 0.25
212 | FRCY | ≤ 0.25
213 | FSCA | ≤ 0.25
214 | LINM | ≤ 0.25
215 | LWMD | ≤ 0.25
216 | WGNR | ≤ 0.25

Row | Variant | enrichment ratio
217 | VQIF | ≤ 0.25
218 | VTFQ | ≤ 0.25
219 | ALHA | ≤ 0.25
220 | SKKN | ≤ 0.25
221 | GDVQ | ≤ 0.25
222 | WNWR | ≤ 0.25
223 | TRWH | ≤ 0.25
224 | DGDH | ≤ 0.25
225 | QATI | ≤ 0.25
226 | PPGF | ≤ 0.25
227 | RGSL | ≤ 0.25
228 | ARKR | ≤ 0.25
229 | PYCG | ≤ 0.25
230 | YRMH | ≤ 0.25
231 | PVWM | ≤ 0.25
232 | TKEF | ≤ 0.25
233 | FTDI | ≤ 0.25
234 | RYKG | ≤ 0.25
235 | NNFI | ≤ 0.25
236 | DETF | ≤ 0.25
237 | ADRQ | ≤ 0.25
238 | RFGA | ≤ 0.25
239 | DCFH | ≤ 0.25
240 | FHGW | ≤ 0.25

Row | Variant | enrichment ratio
241 | FGDP | ≤ 0.25
242 | LRKK | ≤ 0.25
243 | DQTH | ≤ 0.25
244 | IIGT | ≤ 0.25
245 | RQQD | ≤ 0.25
246 | PSIG | ≤ 0.25
247 | VELT | 4.93
248 | RDLH | ≤ 0.25
249 | DKQD | ≤ 0.25
250 | CRPC | ≤ 0.25
251 | KQFT | ≤ 0.25
252 | WMTF | ≤ 0.25
253 | QQPS | ≤ 0.25
254 | NVAG | ≤ 0.25
255 | EDTQ | ≤ 0.25
256 | NQTC | ≤ 0.25
257 | PCRS | ≤ 0.25
258 | PCTR | ≤ 0.25
259 | FWQF | ≤ 0.25
260 | KKPQ | ≤ 0.25
261 | TDAT | 9.5
262 | NRAH | ≤ 0.25
263 | ACFF | ≤ 0.25
264 | TWAS | ≤ 0.25

Row | Variant | enrichment ratio
265 | WLQF | ≤ 0.25
266 | LVKM | ≤ 0.25
267 | EDQL | ≤ 0.25
268 | WNQS | ≤ 0.25
269 | RCGP | ≤ 0.25
270 | MDVG | ≤ 0.25
271 | NTRL | ≤ 0.25
272 | VVCT | ≤ 0.25
273 | DGMR | ≤ 0.25
274 | ICHR | ≤ 0.25
275 | AGMM | 5.09
276 | HDWD | ≤ 0.25
277 | PHPC | ≤ 0.25
278 | RKEP | ≤ 0.25
279 | GLWA | ≤ 0.25
280 | WWCI | ≤ 0.25
281 | YGFH | ≤ 0.25
282 | NWCQ | ≤ 0.25
283 | WIII | ≤ 0.25
284 | DHFD | ≤ 0.25
285 | TKDW | ≤ 0.25
286 | HDSI | ≤ 0.25
287 | DHMY | ≤ 0.25
288 | GWNS | ≤ 0.25

Row | Variant | enrichment ratio
289 | RQQC | ≤ 0.25
290 | PNMG | ≤ 0.25
291 | QCLK | ≤ 0.25
292 | LNGP | ≤ 0.25
293 | HWPC | ≤ 0.25
294 | PDMQ | ≤ 0.25
295 | YFEA | ≤ 0.25
296 | DAYG | ≤ 0.25
297 | IYFK | ≤ 0.25
298 | GNCQ | 12.1
299 | HNSY | ≤ 0.25
300 | FALK | 2.57
301 | RSEL | ≤ 0.25
302 | KTQI | ≤ 0.25
303 | IPLS | ≤ 0.25
304 | PNRM | ≤ 0.25
305 | ITNE | ≤ 0.25
306 | FAPG | ≤ 0.25
